Assay results reported in PubChem BioAssay AID445 (National Center for Advancing Translational Sciences (NCATS), 2006).
Among all 110,000 compounds or so, about 40 (0.04%) were called active. The inconclusive results got no clear call from the source; some entries with a clear call stand among them for comparison. Calls come from the whole dose curve; as a rule, active = well fitted curve in the direction sought with a large enough effect in the signal ratio (not every such curve was filed as active); inconclusive = small, poorly fitted or top-dose-only effect, or a change in a side signal; inactive = flat fitted curve, though single readings scatter; the % refers to the signal ratio. Potencies beside an inconclusive call are fits to weak or partial responses and may not hold up.

Assay: IkB Signaling;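 for IkBa stabilization activation: 0% = basal untreated cells and 100% = reference inhibitor full response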
Conditions: ABC-DLBCL IkBa-CBG/CBR dual luciferase ratio (green luciferase fused to IkBa over red control in OCI-Ly3 lymphoma cells), 4 h; IkBa stabilization activation: at 57.1 µM (top of the series), scaled: untreated 0%, proteasome inhibitor 100% unless noted
Method in brief: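 Curves were fitted separately to fusion (green), unfused (red) and ratio luminescence, then classed by r2, magnitude and activity. Cells: OCI-Ly3, 4 h compound plus doxycycline at 37C; 10 uM MG-132 defined full response.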
Potency is the fitted concentration of half-maximal effect.

Row | SMILES | IkBa stabilization activation | Potency
1 | O=C(O)CCCCn1cnc2c(=S)nc[nH]c21 | inactive: -0.204% [at 11.4 µM, scaled: untreated 0%, proteasome inhibitor 100%] | –
2 | CCOC(=O)c1c(S(=O)(=O)NCC(=O)Nc2ccc(C)c(Cl)c2)c(C)n(C)c1C | inconclusive: 1.33% [signal inhibitor] | –
3 | Cc1ccc(S(=O)(=O)CCc2nnc(NC(=O)c3ccccn3)s2)cc1 | inactive: 1.19% | –
4 | CCOc1ccc(C2c3[nH]c4ccccc4c3CCN2C(=O)Cc2cccc(OCC)c2OCC)cc1 (stereo not drawn) | inactive: 2.15% | –
5 | CC(CCC(=O)O)(c1cc(Br)c(O)c(Br)c1)c1cc(Br)c(O)c(Br)c1 | inactive: -0.00106% [at 11.4 µM, scaled: untreated 0%, proteasome inhibitor 100%] | –
6 | CC(=O)C1=C(C)NC(SCC(=O)c2ccc(Cl)c(Cl)c2)=C(C#N)C1c1ccco1 (stereo not drawn) | inconclusive: -0.752% [signal inhibitor] | –
7 | CCOC(=O)c1cnc2ccc(C(=O)OC)cc2c1Nc1ccccc1CC | inconclusive: -3.83% [signal inhibitor] | –
8 | Cc1nc2cnc(Oc3ccccc3)nc2n(CCc2ccccc2)c1=O | inactive: 0.624% [at 11.4 µM, scaled: untreated 0%, proteasome inhibitor 100%] | –
9 | O=C(NCCCn1ccnc1)c1cn(-c2ccccc2)nc1-c1ccc(F)cc1 | inactive: 0.966% | –
10 | CCCC(=O)NC(c1ccco1)c1cc(Cl)c2cccnc2c1O (stereo not drawn) | inconclusive: 5.29% [signal inhibitor] | –
11 | COc1ccc(-c2nc3sc(CCNC(=O)c4cccc(C(F)(F)F)c4)c(C)n3n2)cc1 | inactive: -1.19% | –
12 | O=C(Nc1ccc2c(c1)ncn2-c1ccccc1)c1ccco1 | inconclusive: 15.4% [signal inhibitor] | –
13 | CCc1ccccc1N(C)C(=O)c1cnc(N2CCOCC2)c2ccccc12 | inconclusive: 5.64% [signal inhibitor] | –
14 | C=CCn1c(=O)c2ccccc2n2c(SCC(=O)c3ccccc3)nnc12 | inactive: 0.0476% | –
15 | Cc1ccc(Cc2nc3ccccc3nc2SCC(=O)NCc2ccc(F)cc2)cc1 | inconclusive: 0.943% [signal inhibitor] | –
16 | Cc1cc(Br)ccc1NC(=O)c1cn(C2CCCC2)c(=O)c2c1c1ccccc1n2C | inconclusive: -0.9% [signal inhibitor] | –
17 | COc1ccc(CCNc2ncnc3c2c(-c2ccccc2)cn3-c2ccc(F)cc2)cc1OC | inconclusive: 0.317% [signal inhibitor] | –
18 | CS(=O)(=O)Nc1cccc(-c2nc(Nc3ccccc3)c3ccccc3n2)c1 | inactive: -3.82% [at 11.4 µM, scaled: untreated 0%, proteasome inhibitor 100%] | –
19 | Cc1cnn(-c2ccc3nnc(-c4ccc(Br)cc4)n3n2)c1 | – | inconclusive: 0.2 µM [signal inhibitor, full curve]
20 | CC(=O)c1cc2c(cc1NC(=O)CN1CCN(c3cccc(C(F)(F)F)c3)CC1)OCO2 | inactive: -0.312% | –
21 | COc1cccc2[nH]c3c(N4CCCCC4)ncnc3c12 | inactive: -3.19% | –
22 | Cc1ccc(C)c(Nc2nn3c(=O)c4ccc(C(=O)NCCc5ccccc5)cc4nc3s2)c1 | inconclusive: 2.22% [signal inhibitor] | –
23 | CCOC(=O)Nc1nnc(-c2ccccc2OC)s1 | inactive: -1.97% | –

Row | SMILES | IkBa stabilization activation | Potency
24 | CN(C)c1ccc2nc3ccc(=[N+](C)C)cc-3sc2c1 | inactive: -0.407% | –
25 | CN(C)c1ncnc2ccc(-c3ccc4c(c3)OCO4)cc12 | inactive: -5.41% [at 11.4 µM, scaled: untreated 0%, proteasome inhibitor 100%] | –
26 | Cc1ccc(N2CCN(C(=O)c3c4c(nc5ccccc35)C(=O)N(C3CCCCC3)C4)CC2)c(C)c1 | inconclusive: 10.7% [signal inhibitor] | –
27 | CCOC(=O)N1CCN(S(=O)(=O)c2ccc(OCC)c3ccccc23)CC1 | inconclusive: 8.42% [signal inhibitor] | –
28 | CCOC(=O)c1ccc(NC(=O)C(CC)Sc2nc3ncccc3o2)cc1 (stereo not drawn) | inactive: -1.5% | –
29 | COc1ccc(C(=O)Nc2nc3c(s2)CCc2cc(OC)ccc2-3)cc1 | inconclusive: 4.5% [signal inhibitor] | –
30 | Cc1nn(-c2ccccc2)c2c1C(c1cccnc1)N1C=C(S(=O)(=O)N3CCCCC3)C=CC1=N2 (stereo not drawn) | inactive: 3.55% | –
31 | N#C/C(C(N)=O)=c1/ccc2c(c1)N1C3=C(CCCC3)CC3CCCCC31N=2 (stereo not drawn) | inconclusive: 8.49% [signal inhibitor] | –
32 | CCc1ccc(-c2[nH]c3c(c2-c2sc(C)c(C(=O)OC)c2O)c(=O)[nH]c(=O)n3C)cc1 | inconclusive: 12.7% [signal inhibitor] | –
33 | N#Cc1c(NC(=O)CSc2ncnc3c2cnn3-c2ccccc2Cl)sc2c1CCCC2 | inactive: 0.976% | –
34 | CCCCN(CC)C(=O)Cc1c(C(=O)O)[nH]c2ccc(Cl)cc12 | inconclusive: 4.75% [signal inhibitor] | –
35 | CCOc1ccc(CCNC(c2cccc(Cl)c2)c2nnc(-c3ccccc3)o2)cc1OCC (stereo not drawn) | inconclusive: 4.52% [signal inhibitor] | –
36 | COC(=O)c1ccc2c(c1)N(Cc1ccc(F)cc1)C(=O)c1ccccc1S2 | inconclusive: 0.121% [signal inhibitor] | –
37 | COc1cccc(/C=C/c2nc(C#N)c(NCCc3ccc(OC)c(OC)c3)o2)c1 | inconclusive: -1.74% [signal inhibitor] | –
38 | CCCCN(CCCC)S(=O)(=O)c1ccc2oc(C(=O)NCc3ccc(C)cc3)c(C)c2c1 | inconclusive: -2.34% [signal inhibitor] | –
39 | CCCCN1C(=O)C(O)(c2c[nH]c3ccccc23)c2cc(Br)ccc21 (stereo not drawn) | inconclusive: 12% [signal inhibitor] | –
40 | COc1ccc2c(c1)sc1ncc(C(=O)NCc3ccc(OC(C)C)cc3)c(=O)n12 | inconclusive: -0.605% [signal inhibitor] | –
41 | N=c1c(C(=O)NCc2ccco2)cc2c(=O)n3ccccc3nc2n1Cc1ccc(Cl)cc1 | inactive: 1.22% | –
42 | COc1ccccc1CN1CC2(CCN(C(=O)c3cnccn3)CC2)C1 | inactive: 0.693% [at 11.4 µM, scaled: untreated 0%, proteasome inhibitor 100%] | –
43 | O=C(Nc1nnc(-c2ccccc2)o1)c1ccc(Cl)cc1 | – | inconclusive: 7.94 µM [falling, full curve]
44 | CCCOCCOC(=O)c1[nH]c2c(c1C)C(=O)CC(c1cc(OC)ccc1OC)C2 (stereo not drawn) | inconclusive: 7.72% [signal activator] | –
45 | COc1ccc(-c2cc(C(F)(F)F)nc(SCCC(=O)Nc3cc(C)ccc3O)n2)cc1 | – | inconclusive: 7.94 µM [signal activator, full curve]
46 | CCOCCCNC(=O)c1[nH]c2cc(C)ccc2c1Sc1ccc(Cl)cc1 | inconclusive: 11.5% [signal inhibitor] | –

Row | SMILES | IkBa stabilization activation | Potency
47 | C=CCOc1ccc(/C=C/C(C)=N\O)cc1 | inactive: 0.448% | –
48 | COc1ccc(CCNC(=O)c2c(O)nc3c(C)cccn3c2=O)cc1 | inconclusive: 1.27% [signal inhibitor] | –
49 | COc1ccc(C(=O)N2c3ccccc3C(C)(c3ccc(Cl)cc3)CC2(C)C)cc1 (stereo not drawn) | inconclusive: 12.6% [signal inhibitor] | –
50 | O=C(NCCc1ccncc1)c1ccccc1F | inactive: -0.281% | –
51 | N#Cc1nc(-c2cccc3ccccc23)oc1NCCN1CCOCC1 | inactive: 2.15% | –
52 | Oc1ccccc1C1=Nc2nc3ccccc3n2C(c2ccccc2)C1 (stereo not drawn) | – | inconclusive: 12.6 µM [signal inhibitor, partial curve]
53 | COc1cccc(-c2nc(SCC(=O)Nc3ccc4c(c3)OCCO4)c(-c3ccccc3)[nH]2)c1 | inconclusive: 4.55% [signal inhibitor] | –
54 | CCOc1ccc(S(=O)(=O)N(CC(N)=O)c2ccc(C)cc2)cc1 | inactive: 0.707% | –
55 | COc1cc(NC(=O)c2c(F)c(F)c(F)c(F)c2F)c(OC)cc1Cl | inconclusive: 5.83% [signal inhibitor] | –
56 | COc1ccccc1OCCSc1nc2ccccc2n1CC(=O)N1CCOCC1 | inactive: 2.31% | –
57 | O=C(CC(=O)c1cc(Cl)ccc1O)c1ccccc1 | – | inconclusive: 25.1 µM [rising, partial curve]
58 | Cc1ccccc1Nc1c(-c2ccco2)nc2c(C)cccn12 | inconclusive: 5.91% [signal inhibitor] | –
59 | Cc1ccc(CS(=O)(=O)c2ncc(Cl)c(C(=O)Nc3nc4ccc(C)cc4s3)n2)cc1 | inconclusive: -4.24% [signal inhibitor] | –
60 | CCOC(=O)c1sc2ncnc(NCC(c3cccs3)N(C)C)c2c1C (stereo not drawn) | inconclusive: 4.07% [signal inhibitor] | –
61 | Cc1n[nH]c(C)c1S(=O)(=O)N(CC(=O)Nc1ccc(C(F)(F)F)cc1)c1ccc(C(C)C)cc1 | inconclusive: 0.117% [signal inhibitor] | –
62 | CCCCCOc1c(Cl)cc(C(=O)N(Cc2ccc(C)o2)C2CCS(=O)(=O)C2)cc1Cl (stereo not drawn) | inactive: 3.51% | –
63 | CCOC(=O)CCNC(=O)Nc1ccc2nc(C)n(Cc3ccc(Cl)cc3)c(=O)c2c1 | inconclusive: 4.09% [signal inhibitor] | –
64 | COc1ccc(C)c2sc(N(Cc3cccnc3)C(=O)C3CCCCC3)nc12 | – | inconclusive: 25.1 µM [signal inhibitor, partial curve]
65 | CCOC(=O)c1ccc(N2C(=O)c3n[nH]c(-c4ccco4)c3C2c2ccc(O)cc2)cc1 (stereo not drawn) | inconclusive: -7.3% [signal inhibitor] | –
66 | c1coc(CNc2nc(-c3ccncc3)cs2)c1 | inconclusive: 2.57% [signal inhibitor] | –
67 | O=C(O)Cn1c(=O)oc2cc(S(=O)(=O)NC3CCCCC3)ccc21 | inactive: 2.76% | –
68 | COc1ccc(C)cc1NC(=O)c1c(C)oc2ncn(CC(C)C)c(=O)c12 | inconclusive: -0.501% [signal inhibitor] | –
